According to the RNAGym collection of RNA variant scans (doi:10.7554/elife.90254):
Read counts are not given, so values of variants with three or more changes are uncertain.

B1: LINE1-mini (parent)
chain: GGCAGAGCUCAACACAGCGUGGCAAAGUGGCUGUGGCUAGACUGCC

Variants of: B1
Experiment: self-cleavage, relative activity (ratio to wild type); higher = more cleavage; in vitro, sequencing; the parent is a self-cleaving ribozyme

Variant	self-cleavage
U9C G19A C23G U38G	0.01
U9C G22U A24C C31A U43A	0.01
C13G G27U G35C	0.49
G2A C10U A24U G36U	0.06
A6G C13U G17U	0.18
G33A G36A C45G	0.03
C13G A14C G21U C45G	0.01
C3A G7U U9A C13G U32G	0.08
G7A C10U U20A	0.02
A14U C31U U38G C42U	0.01
A14C G29U G36U	0.05
G27U U38C G44U	0.8
C10G G21C G40C	0.04
G7U G22A G29A	0.02
C31U C42A C45G	0.01
A12G C23U C46A	0.01
C15U A25C G36C G44C	0.01
A6C G21U A26U G36A C46U	0
A25U G27U G29C	0.21
U20A U28G A41U	0.12
C15G U28C G29U C42A C46U	0.08
C8A C18G C37U	0.07
A6U G29C G35A C45U	0.94
G30A G36U G40A	0.25

Variant	self-cleavage
G17A A25C C42A U43C	0.01
G7C C31U C46A	0.09
A4U C13A U20C A26U C37G	0.02
A14C G22U A24U A26C C42A	0.03
C8A A14C C15A A26C	0.14
A12G C23U A26U G29U C31A U38G	0
U9C U20C G21C	0.08
G7A C15U U43C	0.26
A6G U20C G21C A26G	0.01
A4G U9A C31U U32A	0.19
C3A C8A G35C U38C A41U U43G	0.55
A4C C8A C13G C18A C23G A24G C45U	0.19
G27U A41C C42A	0.03
A4G G19C C23U	0.11
G1A C8G A12G C23U	0.19
C3A G33C G36C	0.06
G5A C10G A14C C23U G30A	0.02
G17A U28A G30A C37G G44U	0.01
G7A U9G G33A C46U	0.05
G7U A16G U32C A39U	0
A6U G7A C15U A16C C46U	0.54
C3U G7A C8A G44U	0.34
A4U G19U C42G	0.01
G5U C18A A24C	0.01

Variant	self-cleavage
G2C C10A A11U G35A	0.03
C10A C23U G33U	0.03
G1U A24G U28A G29C C31U G36U	0.02
C8A A14U C18U U20C G35U	0.1
C3A A11C G21C C37G U38A A41C	0
C3A G21U C45A C46G	0.18
C3G A41U G44U	2.24
U20G G27U U28G U43A	0.02
G5U C8A C42G	0.05
G22C A25C U34C	0.03
A12G U20A A39U	0.04
G19A U32A G33U	0.1
G2A A6U C10G U28C G44A	0.09
C3A A6G G33A	0.09
C10G C18A G40C	0.02
C10A A25U G35A C42G U43G	0.01
G1U A6U C10A	0.01
G5U C10A G22U C37U	0.01
G1C U9C C15A G21U U34G C46U	0.01
C10A A16G U34A G40C	0
A6G A16G G21C	0.03
C15A G21A U34G	0
G5U U20A G33A U38C	0.03
C23G C31G G44A	0.03

Variant	self-cleavage
A11G A25C C46U	0
C8U C15U G33U U38G	0.01
C10G A16U G21U	0.06
G7C C13A G21A G27C G35C G36U	0.21
A14U U32G C46G	0.08
G7A C18A G35U	0.03
A39C A41C C46A	0.06
A6U A25U G27A	0.14
U9G C31U G35A C42A	0.02
A4C C31G G35C C37A U38C C45U	0.04
A6G C10A A41G	0.01
C23A G29A U34C	0.15
A14G C15A G33A C45A	0.06
A6U G7A U20A C45U	0.03
U20A U28C G35U	0.07
C3A U9C A11G A12C A14U C18G	0
A4U A14U G21A G29A	0.12
C10U G17U C23G	0.02
C23U A25C G27A U38A	0.53
G1U G19U G33C	0.05
C13G C37U U38G	0.07
C3G A11U A41G	0.01
A11C G22A A25G G40U	0.01
G1U G5C C13A G22U A25G G35U	0.04

Variant	self-cleavage
A11C C13G A25C G35U C42U	0.01
G2A C10G C31G	0.01
G17U U20G U34G	0.1
U9A G19U A24U	0.04
G1C A4U C13G G17U A25G U34A C37A A41C	0.02
G7U C18U U32A	0.07
G30U U32G A41U C42A	0.03
C3A G7C U9A A16C	0.16
C15A G27A C42A U43A	0.04
G2A A11U A16G	0.04
U9G G19C C23G G27U	0.04
C13G C18A A25G G27U C45U	0.11
G2A G21U G36C C42G	0.16
C13U G17C C23G C31G C42U	0.03
G1U U9A C10A C15G G22C G44U	0
G7A G29U C46A	0.1
C15G C18U G19A U28G C45A	0.01
U20C A26G G27C G33U	0.03
A6C C10U C13U C45U C46A	0.03
U28C G30U C45G	0.1
G5A U9G G22U	0.1
U34A A39C U43C	0.02
U38A C42A C45A	0.14
C10U A14G A24C G29A C37G	0.03

Variant	self-cleavage
G1U G5U C23A C31U C37G C42U	0.01
A6U C18U G29U	0.48
G7C C23G C31G U34C A39C	0.01
C18A A26G U28A G36U	0.04
C8G A39C G40C	0.05
A6G U20A U32C C37G U43G	0.03
G19U G36C A39G	0.04
A11U A12U G36C G40C C46A	0
A24G G30C C31U	0.55
A16C G21A C31G	0.17
G19A G22C A26U G35U A41U	0.2
A6U G30U C45G	0.87
G5U C10U A12U A16C C18G G29C	0.08
C13U G19C C23A C45A	1.35
G5C G7A G30A G40C G44C	0.05
C15U C18G G22U C37U	0.03
G2C A4C G5A C10G	0.01
C10U G27A C31G	0.12
C8U G35C A39U	0.02
A12U U28A C37A U43C	0.04
C8A A24G A26U G27C	0.02
C23U G35A G40A U43C	0.03
A6C G7A A16C	0.07
G1U U9G U20C C23U G30U U32A	0.02

Variant	self-cleavage
C10G G19U A39U	0.05
G17C U34A C42A	0.25
G1A G2U A25C G30U U32G C37G	0.05
A4G C31A G44A C46U	0.01
A25G G35U A41G C42G C45A	0.13
G5C U28C A39U A41U	0.09
A14G A24U U34C	0.15
A4G G5U G33C C42G	0.1
U9G C10G C18A U28C G30C C42G	0.01
A6C G21U A25C	0.07
G1C A4U G22U A24U G27C A39C	0.01
G5U A11G G36U G44U C45G	0
C10U A11U U38G	0.01
A12G A14G G30A U32G	0.02
A12U U28A G40U	0.07
G7C G19C C37U	0.03
G7A C8A A16C	0.22
C15U C18G G21A A25U U28C	2.18
C3A A16U C23G A26C	0.11
G30C U32G C37U G44U	0.03
A6U G36U U38G	0.01
C18G G19A G22U A25U C31U	0.09
G1C G2U A6U A16U U20A A41G	0.01
